# The campaign covered roughly 310,000 compounds. About 14,000 (4.5%) showed an effect of 50% or more. The effect is printed as a negative number. This is one part of the list.
# Biological target: human ether-à-go-go-related gene (hERG) potassium channel (human, UniProt Q12809)
# Assay: primary screen, population patch clamp on CHO cells stably expressing hERG
# 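Also: peak tail current of the secondary pulse compared with the same well before compound.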
# Sequence of human ether-à-go-go-related gene (hERG) potassium channel (Q12809 whole entry, looked up): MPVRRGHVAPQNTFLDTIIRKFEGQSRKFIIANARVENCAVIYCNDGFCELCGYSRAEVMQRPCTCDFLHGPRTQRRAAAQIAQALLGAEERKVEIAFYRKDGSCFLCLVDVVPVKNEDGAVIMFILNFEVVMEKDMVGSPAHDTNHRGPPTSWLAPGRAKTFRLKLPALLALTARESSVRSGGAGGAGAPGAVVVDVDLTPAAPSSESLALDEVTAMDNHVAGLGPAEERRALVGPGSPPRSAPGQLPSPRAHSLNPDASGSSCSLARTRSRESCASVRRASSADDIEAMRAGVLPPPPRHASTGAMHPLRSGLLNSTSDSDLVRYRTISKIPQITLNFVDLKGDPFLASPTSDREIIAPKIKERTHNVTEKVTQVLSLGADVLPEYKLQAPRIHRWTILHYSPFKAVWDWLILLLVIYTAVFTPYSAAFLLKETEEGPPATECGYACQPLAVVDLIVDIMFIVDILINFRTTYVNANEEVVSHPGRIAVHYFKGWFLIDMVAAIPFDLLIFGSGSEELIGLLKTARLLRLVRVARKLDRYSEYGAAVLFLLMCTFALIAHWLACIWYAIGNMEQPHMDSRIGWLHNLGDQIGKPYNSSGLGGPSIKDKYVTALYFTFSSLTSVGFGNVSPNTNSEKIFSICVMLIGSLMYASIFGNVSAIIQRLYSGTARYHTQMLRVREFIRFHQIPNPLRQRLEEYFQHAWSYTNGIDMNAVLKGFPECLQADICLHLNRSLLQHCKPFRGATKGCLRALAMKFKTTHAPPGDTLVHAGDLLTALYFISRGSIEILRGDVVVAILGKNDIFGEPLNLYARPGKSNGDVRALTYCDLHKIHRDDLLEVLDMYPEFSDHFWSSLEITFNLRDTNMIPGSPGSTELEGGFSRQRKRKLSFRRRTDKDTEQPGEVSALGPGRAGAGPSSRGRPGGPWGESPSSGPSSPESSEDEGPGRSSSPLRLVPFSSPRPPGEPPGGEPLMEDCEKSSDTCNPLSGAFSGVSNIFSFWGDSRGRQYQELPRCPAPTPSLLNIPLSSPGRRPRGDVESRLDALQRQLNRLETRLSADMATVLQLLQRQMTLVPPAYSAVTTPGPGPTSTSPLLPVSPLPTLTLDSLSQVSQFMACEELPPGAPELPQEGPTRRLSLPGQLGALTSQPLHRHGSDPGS
row,SMILES,"hERG current change (%, negative = inhibition) at 10uM [%]"
1,Cc1ccsc1C(=O)OCC(=O)c1cc(C)n(CC2CCCO2)c1C (stereo not shown),-21.5
2,COc1ccc(S(=O)(=O)NCc2ccncc2)cc1OC,9.12
3,CCC(C)(C)NC(=O)Cc1ccc(F)cc1,16.9
4,CCN(CC(=O)NCc1cccs1)C(=O)CN(C)S(=O)(=O)c1ccc(C)cc1,-27.3
5,CCCc1cc(=O)[nH]c(SCC(=O)N2CCCC2=O)n1,21.6
6,Cn1c(=O)c2c(nc(N3CCOCC3)n2C)n(C)c1=O,-4.44
7,COc1ccc(C(CC(=O)N2CCCCC2)c2c(O)cc(OC)cc2OC)cc1 (stereo not shown),11.6
8,CC1=CC(C)(C)n2c(O)c(N=N)c3cc(C)cc1c32,-0.752
9,CCOC(=O)CSc1nnc(NC(=O)CN2CCCCC2)s1,15.2
10,Cc1cc(C(=O)OCC(=O)N2CCC(c3ccccc3)=N2)ccc1[N+](=O)[O-],6.81
11,COc1ccc(CCNC(=O)[C@@H]2C[C@H]2c2ccccc2)cc1OC,-7.9
12,O=C(Cn1nc2sc3ccccc3n2c(=O)c1=O)c1ccc(Cl)cc1,26.5
13,COc1ccc2oc(C(=O)OCC(=O)N3CCN(S(=O)(=O)c4ccc(C)cc4)CC3)c(C)c2c1,14.5
14,CC(C)Cc1nnc(NC(=O)CCC(=O)N2CCN(Cc3ccc(F)cc3)CC2)s1,-8.14
15,O=C(Cc1ccccc1)NCCc1cn2ccsc2n1,22
16,CCOC(=O)Cn1c(=NC(=O)CSC(C)=O)sc2ccccc21,-44.3
17,Cn1cccc1C(=O)OCc1ccc(C(C)(C)C)cc1,10.6
18,O=C1C=C(c2ccc3ccccc3c2)C[C@@H](c2ccc(Cl)cc2)C1,12.4
19,Cn1cc(CCC(=O)N2CCCC(CCC(=O)NCc3ccc(F)c(F)c3)C2)cn1 (stereo not shown),-10.8
20,O=C(COc1ccccc1)Nc1cccc(-c2nn[nH]n2)c1,7.2

row,SMILES,"hERG current change (%, negative = inhibition) at 10uM [%]"
1,CCCCOP(=O)(c1ccc(N(C)C)cc1)C(O)c1ccncc1 (stereo not shown),-1.72
2,CCN(CC)CCNCc1cc(Cl)c(OCC(=O)Nc2ccccc2)c(OC)c1.Cl,-62.5
3,COc1ccc(C2NCCn3cccc32)cc1.O=C(O)/C=C\C(=O)O (stereo not shown),-10.9
4,Cc1cc(NC(=O)CN2CCc3ccccc3C2)nc2c1c(=O)oc1ccccc12,11
5,Cc1cc(=O)[nH]c(SCc2nc3ccc([N+](=O)[O-])cc3[nH]2)n1,9.36
6,CCOc1ccc(N=C2NC(=O)C(CC(=O)O)S2)cc1 (stereo not shown),-2.78
7,CN1C(=O)CC(N2CCN(c3ccccn3)CC2)C1=O (stereo not shown),1.46
8,Cc1noc(C)c1C(=O)NCCc1ccc(Cl)cc1,-1.59
9,CCCCN(C(=O)CSc1nnc(Nc2ccccc2)s1)c1c(N)n(CCC)c(=O)[nH]c1=O,26.9
10,CCOc1ccccc1NC(=O)c1ccccc1NC(=O)c1ccco1,-2.4
11,CCCc1c(CC)c(=N)c2ccccc2n1C.I,-6.91
12,O=C(c1ccco1)N1CCN(c2ccc([N+](=O)[O-])cc2F)CC1,-64.9
13,CCSc1nnc(NC(=O)c2ccc(S(=O)(=O)N(C)C)cc2)s1,17
14,CC(O)CNc1nc2c(c(=O)n(Cc3ccccc3)c(=O)n2C)n1C (stereo not shown),12.6
15,O=C(Nc1nnc(S(=O)(=O)N2CCCC2)s1)c1ccccc1Cl,-10.7
16,COc1ccc(N2CCN(C(=S)Nc3ccc(S(N)(=O)=O)cc3)CC2)cc1,19.4
17,O=c1nc(N2CCOCC2)ccn1-c1nc(-c2ccccc2)oc1-c1ccccc1,-9.71
18,Cl.O=C(NCCCCNC(=O)c1cccnc1)c1cccnc1,-3.2
19,Cc1ccc(NC(=O)CSc2nccn2C)cc1F,3.62
20,Cc1ccc(Sc2ccc(NC(=O)CCN3C(=O)NC4(CCCC4)C3=O)cc2)c(C)c1,-16

row,SMILES,"hERG current change (%, negative = inhibition) at 10uM [%]"
1,Cc1c(Cl)cccc1NC(=O)CSc1ncnc2c1cnn2CCO,10.9
2,O=C(NC(Cc1ccccc1)C(=O)O)/C(=C\c1ccc([N+](=O)[O-])cc1)NC(=O)c1ccco1 (stereo not shown),26.4
3,O=C(CN1CCCCC1)N1CCc2ccccc21,-6
4,O=C(N1CCOCC1)n1nnc2ccccc21,15.8
5,CC(C)N(Cc1nccn1C)C(=O)CC1C(=O)NCCN1Cc1ccc(F)c(F)c1 (stereo not shown),7.21
6,Cc1ccc(-c2nc3ccccc3o2)cc1NC(=S)NC(=O)c1cccs1,13.5
7,CCC1Oc2ccccc2N(CC(=O)Nc2ccc3c(c2)OCCO3)C1=O (stereo not shown),5.59
8,O=C(Cc1ccccc1)NCCc1ccc(Cl)cc1Cl,-19.6
9,CCCC[C@@H]1C[C@H]1[C@@H](NC(=O)c1ccco1)c1ccccc1C(F)(F)F,6.62
10,CC(=O)N1c2ccc(S(=O)(=O)N3CCOCC3)cc2CC1C (stereo not shown),0.69
11,COc1ccc(CNC(=O)C2CCCN(S(=O)(=O)c3ccc4c(c3)CCCN4C(C)=O)C2)cc1 (stereo not shown),4.76
12,O=C(O)c1ccccc1-c1ccccc1C(=O)Nc1ccccc1,8.38
13,COc1ccccc1S(=O)(=O)Cc1ccc(C(=O)NCC(OC)OC)o1,15.9
14,COc1ccc(NC(=O)Nc2cccc3cccnc23)cc1,-17.4
15,CCN1CCN(C(=O)Nc2ccc(OC)cc2OC)CC1,9.38
16,COc1ccc([N+](=O)[O-])cc1Nc1c2ccccc2nc2ccccc12,9.54
17,COc1ccc(CC(=O)Nc2ccc3c(C(F)(F)F)cc(=O)oc3c2)cc1OC,-18.4
18,COc1cc(C(=O)Nc2ccc3nc4n(c(=O)c3c2)CCCCC4)cc(OC)c1OC,-67.7
